Article PMC12820563
Some of the results follow. The list includes weakly bound sequences.

What follows are sequences tested against T1, MBP-FoxP3dN (UniProt Q99JB6) (assay: PD-seq (MBP pull-down with sequencing)). Conditions: 20 mM Tris-HCl pH 7.5, 100 mM NaCl, 1.5 mM MgCl2, 0.4 uM protein, 0.1 uM dsDNA library, 30 min, room temperature, amylose pull-down; high values mean tight binding; double strand, one strand shown.
T1 sequence: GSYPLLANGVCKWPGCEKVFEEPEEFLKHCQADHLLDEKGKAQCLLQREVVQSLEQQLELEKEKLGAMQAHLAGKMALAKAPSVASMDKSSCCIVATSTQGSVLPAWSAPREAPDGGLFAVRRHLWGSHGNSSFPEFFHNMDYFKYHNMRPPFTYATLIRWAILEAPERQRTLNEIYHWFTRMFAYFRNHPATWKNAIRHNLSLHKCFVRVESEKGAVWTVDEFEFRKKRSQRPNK

Sequence | binding signal (RPM ratio (pull-down/input))
GATGATTGTTCTCCCAGCTGATGAATTGGGGTTGTCGAGTAAACAAATTTTCCTAATCTTTCTGTTCAAGCGCCATCTAC | 0.893
GATGATTGTTCTCCCAGCTGATGAATTTGACCGATCGAGTAAACAAATTTTCCTAATCTTTCTGTTCAAGCGCCATCTAC | 0.228
GATGATTGTTCTCCCAGCTGATGAATTGCATGCGTCGAGTAAACAAATTTTCCTAATCTTTCTGTTCAAGCGCCATCTAC | 2.23
GATGATTGTTCTCCCAGCTGATGAATTCACGATTTCGAGTAAACAAATTTTCCTAATCTTTCTGTTCAAGCGCCATCTAC | 0.327
GATGATTGTTCTCCCAGCTGATGAATTCAACCGGTCGAGTAAACAAATTTTCCTAATCTTTCTGTTCAAGCGCCATCTAC | 0.231
GATGATTGTTCTCCCAGCTGATGAATTTTCATCGTCGAGTAAACAAATTTTCCTAATCTTTCTGTTCAAGCGCCATCTAC | 0.339
GATGATTGTTCTCCCAGCTGATGAATTCGTCGCATCGAGTAAACAAATTTTCCTAATCTTTCTGTTCAAGCGCCATCTAC | 1.1
GATGATTGTTCTCCCAGCTGATGAATTCAAGGGTTCGAGTAAACAAATTTTCCTAATCTTTCTGTTCAAGCGCCATCTAC | 0.277
GATGATTGTTCTCCCAGCTGATGAATTATAAAACTCGAGTAAACAAATTTTCCTAATCTTTCTGTTCAAGCGCCATCTAC | 0.254
GATGATTGTTCTCCCAGCTGATGAATTGACCCCGTCGAGTAAACAAATTTTCCTAATCTTTCTGTTCAAGCGCCATCTAC | 0.239
GATGATTGTTCTCCCAGCTGATGAATTGTTGCTCTCGAGTAAACAAATTTTCCTAATCTTTCTGTTCAAGCGCCATCTAC | 2.37
GATGATTGTTCTCCCAGCTGATGAATTTTTCTTATCGAGTAAACAAATTTTCCTAATCTTTCTGTTCAAGCGCCATCTAC | 0.3
GATGATTGTTCTCCCAGCTGATGAATTGCCACACTCGAGTAAACAAATTTTCCTAATCTTTCTGTTCAAGCGCCATCTAC | 1.52
GATGATTGTTCTCCCAGCTGATGAATTGTGCAAGTCGAGTAAACAAATTTTCCTAATCTTTCTGTTCAAGCGCCATCTAC | 3.75
GATGATTGTTCTCCCAGCTGATGAATTAATTTTCTCGAGTAAACAAATTTTCCTAATCTTTCTGTTCAAGCGCCATCTAC | 1.65
GATGATTGTTCTCCCAGCTGATGAATTGCAGTGATCGAGTAAACAAATTTTCCTAATCTTTCTGTTCAAGCGCCATCTAC | 0.899
GATGATTGTTCTCCCAGCTGATGAATTTATCTATTCGAGTAAACAAATTTTCCTAATCTTTCTGTTCAAGCGCCATCTAC | 1.23
GATGATTGTTCTCCCAGCTGATGAATTTCAGCGTTCGAGTAAACAAATTTTCCTAATCTTTCTGTTCAAGCGCCATCTAC | 1.12
GATGATTGTTCTCCCAGCTGATGAATTCCTACCATCGAGTAAACAAATTTTCCTAATCTTTCTGTTCAAGCGCCATCTAC | 0.308
GATGATTGTTCTCCCAGCTGATGAATTCTCGATGTCGAGTAAACAAATTTTCCTAATCTTTCTGTTCAAGCGCCATCTAC | 0.372
GATGATTGTTCTCCCAGCTGATGAATTCGGTGTATCGAGTAAACAAATTTTCCTAATCTTTCTGTTCAAGCGCCATCTAC | 2.21

Sequence | binding signal (RPM ratio (pull-down/input))
GATGATTGTTCTCCCAGCTGATGAATTATCTGTATCGAGTAAACAAATTTTCCTAATCTTTCTGTTCAAGCGCCATCTAC | 0.545
GATGATTGTTCTCCCAGCTGATGAATTGCTCTGGTCGAGTAAACAAATTTTCCTAATCTTTCTGTTCAAGCGCCATCTAC | 0.342
GATGATTGTTCTCCCAGCTGATGAATTTTACACTTCGAGTAAACAAATTTTCCTAATCTTTCTGTTCAAGCGCCATCTAC | 0.356
GATGATTGTTCTCCCAGCTGATGAATTTGGAAGATCGAGTAAACAAATTTTCCTAATCTTTCTGTTCAAGCGCCATCTAC | 0.239
GATGATTGTTCTCCCAGCTGATGAATTCGTCTTGTCGAGTAAACAAATTTTCCTAATCTTTCTGTTCAAGCGCCATCTAC | 0.593
GATGATTGTTCTCCCAGCTGATGAATTGTTCACCTCGAGTAAACAAATTTTCCTAATCTTTCTGTTCAAGCGCCATCTAC | 0.475
GATGATTGTTCTCCCAGCTGATGAATTTGTGAAATCGAGTAAACAAATTTTCCTAATCTTTCTGTTCAAGCGCCATCTAC | 0.516
GATGATTGTTCTCCCAGCTGATGAATTATCGGTATCGAGTAAACAAATTTTCCTAATCTTTCTGTTCAAGCGCCATCTAC | 0.501
GATGATTGTTCTCCCAGCTGATGAATTCTACCGATCGAGTAAACAAATTTTCCTAATCTTTCTGTTCAAGCGCCATCTAC | 0.283
GATGATTGTTCTCCCAGCTGATGAATTGCTCCTCTCGAGTAAACAAATTTTCCTAATCTTTCTGTTCAAGCGCCATCTAC | 0.538
GATGATTGTTCTCCCAGCTGATGAATTTCAACGCTCGAGTAAACAAATTTTCCTAATCTTTCTGTTCAAGCGCCATCTAC | 0.363
GATGATTGTTCTCCCAGCTGATGAATTTGTCTTCTCGAGTAAACAAATTTTCCTAATCTTTCTGTTCAAGCGCCATCTAC | 4.22
GATGATTGTTCTCCCAGCTGATGAATTGCAGCGGTCGAGTAAACAAATTTTCCTAATCTTTCTGTTCAAGCGCCATCTAC | 0.624
GATGATTGTTCTCCCAGCTGATGAATTCACTTGGTCGAGTAAACAAATTTTCCTAATCTTTCTGTTCAAGCGCCATCTAC | 0.467
GATGATTGTTCTCCCAGCTGATGAATTTTTAACATCGAGTAAACAAATTTTCCTAATCTTTCTGTTCAAGCGCCATCTAC | 0.428
GATGATTGTTCTCCCAGCTGATGAATTAAATGGGTCGAGTAAACAAATTTTCCTAATCTTTCTGTTCAAGCGCCATCTAC | 0.388
GATGATTGTTCTCCCAGCTGATGAATTGAGGGTCTCGAGTAAACAAATTTTCCTAATCTTTCTGTTCAAGCGCCATCTAC | 0.692
GATGATTGTTCTCCCAGCTGATGAATTGTGAGGTTCGAGTAAACAAATTTTCCTAATCTTTCTGTTCAAGCGCCATCTAC | 0.784
GATGATTGTTCTCCCAGCTGATGAATTGGTCTCTTCGAGTAAACAAATTTTCCTAATCTTTCTGTTCAAGCGCCATCTAC | 0.388
GATGATTGTTCTCCCAGCTGATGAATTAACCCTTTCGAGTAAACAAATTTTCCTAATCTTTCTGTTCAAGCGCCATCTAC | 0.247
GATGATTGTTCTCCCAGCTGATGAATTATGTTCTTCGAGTAAACAAATTTTCCTAATCTTTCTGTTCAAGCGCCATCTAC | 1.3

Sequence | binding signal (RPM ratio (pull-down/input))
GATGATTGTTCTCCCAGCTGATGAATTGGGAATGTCGAGTAAACAAATTTTCCTAATCTTTCTGTTCAAGCGCCATCTAC | 0.59
GATGATTGTTCTCCCAGCTGATGAATTGTCATCTTCGAGTAAACAAATTTTCCTAATCTTTCTGTTCAAGCGCCATCTAC | 1.03
GATGATTGTTCTCCCAGCTGATGAATTTACTGGTTCGAGTAAACAAATTTTCCTAATCTTTCTGTTCAAGCGCCATCTAC | 0.917
GATGATTGTTCTCCCAGCTGATGAATTCTCTGTCTCGAGTAAACAAATTTTCCTAATCTTTCTGTTCAAGCGCCATCTAC | 0.237
GATGATTGTTCTCCCAGCTGATGAATTATCTGTGTCGAGTAAACAAATTTTCCTAATCTTTCTGTTCAAGCGCCATCTAC | 0.427
GATGATTGTTCTCCCAGCTGATGAATTAGCCGACTCGAGTAAACAAATTTTCCTAATCTTTCTGTTCAAGCGCCATCTAC | 0.205
GATGATTGTTCTCCCAGCTGATGAATTGGTCACGTCGAGTAAACAAATTTTCCTAATCTTTCTGTTCAAGCGCCATCTAC | 0.539
GATGATTGTTCTCCCAGCTGATGAATTTGCGTCTTCGAGTAAACAAATTTTCCTAATCTTTCTGTTCAAGCGCCATCTAC | 2.22
GATGATTGTTCTCCCAGCTGATGAATTTCGGGAATCGAGTAAACAAATTTTCCTAATCTTTCTGTTCAAGCGCCATCTAC | 0.216
GATGATTGTTCTCCCAGCTGATGAATTAGCCCACTCGAGTAAACAAATTTTCCTAATCTTTCTGTTCAAGCGCCATCTAC | 0.369
GATGATTGTTCTCCCAGCTGATGAATTAACCTGGTCGAGTAAACAAATTTTCCTAATCTTTCTGTTCAAGCGCCATCTAC | 0.183
GATGATTGTTCTCCCAGCTGATGAATTCGCGGGTTCGAGTAAACAAATTTTCCTAATCTTTCTGTTCAAGCGCCATCTAC | 0.413
GATGATTGTTCTCCCAGCTGATGAATTAGCAGCATCGAGTAAACAAATTTTCCTAATCTTTCTGTTCAAGCGCCATCTAC | 1.01
GATGATTGTTCTCCCAGCTGATGAATTTGCCTCGTCGAGTAAACAAATTTTCCTAATCTTTCTGTTCAAGCGCCATCTAC | 1.07
GATGATTGTTCTCCCAGCTGATGAATTACGTGATTCGAGTAAACAAATTTTCCTAATCTTTCTGTTCAAGCGCCATCTAC | 0.839
GATGATTGTTCTCCCAGCTGATGAATTGATAAGCTCGAGTAAACAAATTTTCCTAATCTTTCTGTTCAAGCGCCATCTAC | 0.4
GATGATTGTTCTCCCAGCTGATGAATTGCGTACATCGAGTAAACAAATTTTCCTAATCTTTCTGTTCAAGCGCCATCTAC | 1.28
GATGATTGTTCTCCCAGCTGATGAATTGATTGTTTCGAGTAAACAAATTTTCCTAATCTTTCTGTTCAAGCGCCATCTAC | 3.39
GATGATTGTTCTCCCAGCTGATGAATTGGTCATTTCGAGTAAACAAATTTTCCTAATCTTTCTGTTCAAGCGCCATCTAC | 0.806
GATGATTGTTCTCCCAGCTGATGAATTATTAACTTCGAGTAAACAAATTTTCCTAATCTTTCTGTTCAAGCGCCATCTAC | 0.386
GATGATTGTTCTCCCAGCTGATGAATTGAACTACTCGAGTAAACAAATTTTCCTAATCTTTCTGTTCAAGCGCCATCTAC | 0.357
